From the supplement of paper PMC3334620
The full ranking holds about 33,000 sequences; the median of “E-score (-0.5 to 0.5)” is about -0.012, and the highest 2% start at about 0.29. The list shows a part of the results.

target: T1, Ybr033w (UniProt P38073); experiment: PBM E-score (8-mer binding enrichment) (E-score (-0.5 to 0.5)); higher = stronger / more preferred TF binding; most listed sequences are background and not binding sites; conditions: protein concentration: 200 nM; construct: GST-full length
T1 sequence: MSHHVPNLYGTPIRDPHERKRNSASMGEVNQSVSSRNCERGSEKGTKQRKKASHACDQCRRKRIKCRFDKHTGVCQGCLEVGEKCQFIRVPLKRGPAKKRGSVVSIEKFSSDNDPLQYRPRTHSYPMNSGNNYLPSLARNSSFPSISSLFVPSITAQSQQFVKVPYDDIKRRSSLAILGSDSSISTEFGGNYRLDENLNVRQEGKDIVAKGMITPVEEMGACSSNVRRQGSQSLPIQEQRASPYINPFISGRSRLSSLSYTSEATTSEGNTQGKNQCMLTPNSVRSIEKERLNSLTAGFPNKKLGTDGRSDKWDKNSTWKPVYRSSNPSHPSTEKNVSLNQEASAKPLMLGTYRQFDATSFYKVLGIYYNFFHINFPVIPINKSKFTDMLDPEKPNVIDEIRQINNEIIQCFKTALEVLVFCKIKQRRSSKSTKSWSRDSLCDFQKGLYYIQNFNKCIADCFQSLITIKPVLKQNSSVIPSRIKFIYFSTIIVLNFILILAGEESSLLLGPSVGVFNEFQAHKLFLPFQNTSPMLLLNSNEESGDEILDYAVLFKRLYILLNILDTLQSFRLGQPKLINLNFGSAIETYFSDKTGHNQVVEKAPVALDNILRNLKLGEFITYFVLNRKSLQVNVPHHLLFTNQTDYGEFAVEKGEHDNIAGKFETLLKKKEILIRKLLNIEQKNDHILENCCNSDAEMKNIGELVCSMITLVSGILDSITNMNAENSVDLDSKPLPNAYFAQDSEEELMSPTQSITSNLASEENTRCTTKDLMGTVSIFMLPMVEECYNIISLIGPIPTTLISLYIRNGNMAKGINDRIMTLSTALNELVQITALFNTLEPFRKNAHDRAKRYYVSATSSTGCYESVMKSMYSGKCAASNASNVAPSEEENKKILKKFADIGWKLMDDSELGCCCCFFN
How it was run: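 Detection of bound protein used fluorescent anti-GST, with scans normalised by masliner. The proteins were GST-tagged yeast transcription factors applied at about 100-200 nM to universal all-10-mer Agilent arrays made double-stranded by primer extension. Each ungapped eight-base word, pooled with its reverse complement, was scored with an E-score from the Universal PBM Analysis Suite.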

Sequence | PBM E-score
CGCTCCCG | -0.243
CTGTGCCA | -0.127
CGCGCCGC | -0.144
CATGGACG | -0.0125
ACCAACCC | -0.158
AGTCGGGC | -0.14
ACTGCTCC | -0.113
GGAGCTGA | -0.16
CTTAAAAA | 0.138
AGGTTCAG | 0.145
CTTCCTCC | -0.13
AACGCGTG | 0.0968
CTAAGCTA | 0.121
AAGTCACC | -0.143
CGCGCGTC | 0.0511
CGCAGCGA | 0.0573
ATATGAGG | -0.0116
ATTGTCGC | -0.0319
GAAACGGA | 0.187
AAGCAGTG | -0.00323
GGCCACAA | -0.037
CGAAGCCC | -0.239
CGCAGGCC | -0.145
GGGTCCCA | -0.244

Sequence | PBM E-score
CCGGCACG | -0.138
AAAGCTAG | 0.103
CTCGAGGC | -0.2
CGGCTAAG | -0.233
CCTCTATA | 0.0768
ACGAAAAA | 0.107
CCCCGCAG | -0.184
ACGGCTAG | -0.105
AACCCATT | 0.0701
CCTGATGC | -0.0279
GGTGACTA | 0.0708
ACTGTATG | 0.12
CGGCCAGA | 0.0728
CGTGTAGA | 0.121
GGGATCCA | -0.162
CACGTCAC | 0.0456
ATATAACG | 0.264
CGTACGGC | -0.22
TGCGAGCA | 0.0697
CAATATAA | 0.284
ATACCCAG | -0.195
ATTGAACA | 0.127
CCCGAGAA | 0.166
AAGAGTCG | 0.0231

Sequence | PBM E-score
AGGTGACG | -0.165
AAACTAGA | 0.0392
CTCTACTC | -0.139
AATTCCCA | 0.171
GTTAGAGA | -0.076
AGAACTTA | 0.246
ATAGGTAC | 0.158
CTTTCGAA | -0.0701
AGACCATG | -0.17
ACCTAGGG | -0.138
CGTCAGCC | -0.0427
ATAATACA | 0.305
CGAACAAC | 0.077
ATAGTCCG | 0.0667
GATGGGCC | -0.327
GATGAACC | 0.122
GATGGCTA | 0.0135
TGAACACA | 0.101
TAAGAGAA | -0.00742
AGTCATAG | -0.0665
CCCTTTCG | -0.167
AACTTCAC | 0.244
AGTTCTAG | 0.0921
AGGCTAGC | -0.19

Sequence | PBM E-score
ATGTAACG | 0.0762
AACTGGGG | -0.0685
CAGCCAAG | -0.126
ATACTACC | 0.0322
AAAGACAC | 0.184
TACCAATA | 0.0786
AAAAAGCA | 0.246
GAGTTCAC | -0.00821
AAAGGATG | 0.163
CCACATAG | 0.00684
AAAGTCAC | 0.0859
CCCCCTAA | -0.254
TCACTACA | 0.243
CTTAGCGC | 0.0539
CAGTAAGG | -0.0217
AGAACGAC | -0.0786
AAACGAAT | 0.182
GGACCGCC | -0.376
ACCGTGCT | -0.237
AGTATTGG | 0.111
CAGGTATG | 0.0771
TCGGATCA | 0.255
